# According to the supplement of paper PMC5919970:
# Structures can show the parent of a compound that is named as a salt. Whole data set: some 2,000 compounds, median “fractional viability relative to vehicle” near 0.91, cut for the lowest 2% near 0.045. This is one part of the list.
# Test system: TYKNU
# Assay: fractional viability relative to vehicle; TYKNU is a high-grade serous ovarian cancer line; higher = less growth inhibition
# Settings: 72 h
# In short: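 Drug treatment lasted 72 h, with cells grown at 37 °C in 5% CO2 in RPMI 1640 supplemented with 10% FBS. Beforehand, TYKNU control cells or their lentiCRISPRv2 knockout derivatives had been seeded at 500 cells per well into drug-stamped 384-well plates carrying a ~2100-compound library at 2 or 10 μM, in duplicate. Viability came from Cell Titer Glo luminescence, with averaged duplicate treatment wells normalised to duplicate control wells in the same plate position.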
# [1] = 2uM, genotype: DNM1L knockout (sgDNM1L #1)
# [2] = 2uM, genotype: sgCTRLA1 (non-targeting control)
# [3] = 10uM, genotype: DNM1L knockout (sgDNM1L #1)
# [4] = 10uM, genotype: sgCTRLA1 (non-targeting control)
Structure (SMILES),fractional viability [1],fractional viability [2],fractional viability [3],fractional viability [4]
C[C@]12C=CC(=O)C=C1CC[C@@H]1[C@@H]2C(=O)C[C@@]2(C)[C@H]1CC[C@]2(O)C(=O)CO [Prednisone],1.11,1.16,0.95,1.18
CCOC(=O)CCC(=O)O[C@H]1[C@H](O[C@@H]2[C@@H](C)[C@H](O[C@H]3C[C@@](C)(OC)[C@@H](O)[C@H](C)O3)[C@@H](C)C(=O)O[C@H](CC)[C@@](C)(O)[C@H](O)[C@@H](C)C(=O)[C@H](C)C[C@@]2(C)O)O[C@H](C)C[C@@H]1N(C)C [Erythromycin Ethylsuccinate],1.16,1.13,0.919,1.09
COc1cc(NC(=O)c2ccc(-c3ccc(Cl)cc3)o2)cc(OC)c1,1.06,1.09,1.09,1.04
CS(=O)(=O)Nc1ccc([N+](=O)[O-])cc1Oc1ccccc1 [Nimesulide],0.973,1.1,0.922,1.01
C=CC(=O)Nc1cccc(Nc2nc(Nc3ccc(NC4CN(CCF)C4)cc3OC)ncc2C(F)(F)F)c1,0.67,0.752,0.164,0.154
CC(C)CN(C[C@@H](O)[C@H](Cc1ccccc1)NC(=O)O[C@H]1CCOC1)S(=O)(=O)c1ccc(N)cc1 [Amprenavir],0.815,1.06,0.789,0.981
CCC1=C[C@@H]2CN(C1)Cc1c([nH]c3ccccc13)[C@@](C(=O)OC)(c1cc3c(cc1OC)N(C)[C@H]1[C@@](O)(C(=O)OC)[C@H](OC(C)=O)[C@]4(CC)C=CCN5CC[C@]31[C@@H]54)C2 [Vinorelbine Tartrate],0.136,0.134,0.132,0.119
CNC(=C[N+](=O)[O-])NCCSCc1csc(CN(C)C)n1 [Nizatidine],0.911,0.967,0.878,0.991
CCNC(=O)c1noc(-c2cc(Cl)c(O)cc2O)c1-c1ccc(OC)cc1,0.214,0.177,0.296,0.134
CCn1cc(C(=O)O)c(=O)c2cc(F)c(N3CCN(C)CC3)cc21 [Pefloxacin Mesylate Dihydrate],1.13,1.17,1.01,1
CCn1cc(C(=O)O)c(=O)c2cc(F)c(N3CCN(C)CC3)cc21 [Pefloxacin Mesylate],1.08,0.968,1.01,0.888
CCOC(=O)c1ccc(N2NC(=O)C(=Cc3ccc([N+](=O)[O-])o3)C2=O)cc1,0.944,1.26,0.872,1.02
C[C@@H]1CN(c2c(F)c(N)c3c(=O)c(C(=O)O)cn(C4CC4)c3c2F)C[C@H](C)N1 [Sparfloxacin],0.91,1.19,0.979,1.14
Cc1cc(NC(=O)c2cccc(NC(=O)/C=C/CN(C)C)c2)ccc1Nc1nccc(-c2cccnc2)n1,0.771,1.03,0.22,0.265
Cc1cccc(Nc2cc(Cl)nc(SCC(=O)O)n2)c1C,0.786,0.929,0.767,0.719
O=C(N/N=C/c1ccc([N+](=O)[O-])o1)c1ccc(O)cc1 [Nifuroxazide],0.378,1.1,0.0463,0.0163
Cc1cn([C@@H]2C[C@@H](O)[C@H](CO)O2)c(=O)[nH]c1=O [Telbivudine],1.07,1.12,0.888,1
CCc1cc(C(N)=S)ccn1 [Ethionamide],1.08,1.17,0.926,1.03
Cn1cc(C2=C(c3ccc(Cl)cc3Cl)C(=O)NC2=O)c2ccccc21,1.22,1.05,0.706,0.931
OCc1ccc(O[C@@H]2O[C@H](CO)[C@@H](O)[C@H](O)[C@H]2O)cc1 [Gastrodin],0.926,1.16,0.853,1.06
O=C(NC(NC(=S)Nc1ccc(F)c([N+](=O)[O-])c1)C(Cl)(Cl)Cl)C(c1ccccc1)c1ccccc1 (stereo not given),1.03,1.04,0.136,0.0877
COC(=O)c1ccc2c(c1)[nH]c1ncnc(NCCCN3CCCCC3)c12,0.884,1.05,0.929,0.811
C[C@H]1[C@H](NC(=O)/C(=N\OC(C)(C)C(=O)O)c2csc(N)n2)C(=O)N1S(=O)(=O)O [Aztreonam],0.616,0.642,0.219,0.278
OC[C@H]1O[C@@H](OCCc2ccc(O)cc2)[C@H](O)[C@@H](O)[C@@H]1O [Salidroside],0.968,1.14,0.842,1.07
CCc1c2c(nc3ccc(OC(=O)N4CCC(N5CCCCC5)CC4)cc13)-c1cc3c(c(=O)n1C2)COC(=O)[C@]3(O)CC [Irinotecan HCl Trihydrate],0.69,0.913,0.223,0.376
CCc1c2c(nc3ccc(OC(=O)N4CCC(N5CCCCC5)CC4)cc13)-c1cc3c(c(=O)n1C2)COC(=O)[C@]3(O)CC [Irinotecan],0.562,0.776,0.291,0.314
C=C1/C(=C\C=C2/CCC[C@]3(C)[C@@H]([C@H](C)CCCC(C)(C)O)CC[C@@H]23)C[C@@H](O)C[C@@H]1O [Calcitriol],0.841,1.04,0.66,0.934
CCOC(=O)NCCCC(=O)NCCc1ccccc1,0.756,0.967,0.873,0.778

Structure (SMILES),fractional viability [1],fractional viability [2],fractional viability [3],fractional viability [4]
CCC[C@H](NC(=O)/C(C#N)=C/c1cccc(Br)n1)c1ccccc1 [Degrasyn (WP1130)],0.0738,0.0639,0.0286,0.026
CC(C)(O)CC[C@@H](O)[C@](C)(O)[C@H]1CC[C@@]2(O)C3=CC(=O)[C@@H]4C[C@@H](O)[C@@H](O)C[C@]4(C)[C@H]3CC[C@]12C [20-Hydroxyecdysone],1.04,1.1,0.84,1.02
CNC(=O)c1nn(C)c2c1C(C)(C)Cc1cnc(Nc3ccc(N4CCN(C)CC4)cc3)nc1-2,0.409,0.387,0.307,0.229
CN1CCN(c2cccc(Nc3nc4c(-c5ccc(S(C)(=O)=O)cc5)cccn4n3)c2)CC1,0.89,0.911,0.549,0.649
COc1cc2nc(N3CCN(C(=O)C4CCCO4)CC3)nc(N)c2cc1OC (stereo not given) [Terazosin HCl],1.17,1.16,1.07,0.97
CN[C@@H](C)C(=O)N[C@H](C(=O)N1CCC[C@H]1C(=O)Nc1snnc1-c1ccccc1)C1CCCCC1,0.801,1.08,0.571,0.853
CNS(=O)(=O)Nc1nccc(Cc2c(C)c3ccc(Oc4ncccn4)cc3oc2=O)c1F,0.326,0.304,0.239,0.199
OC[C@@H](O)[C@@H](O)[C@H](O)[C@@H](O)CO [Sorbitol],0.882,1.18,0.868,1.04
CC(C)(C)c1cc(C(=O)C(C#N)=NNc2cccc(Cl)c2)no1,0.783,0.936,0.57,0.583
CC(=O)OCC(=O)[C@@]1(O)CC[C@H]2[C@@H]3CCC4=CC(=O)CC[C@]4(C)[C@H]3C(=O)C[C@@]21C [Cortisone acetate],0.961,1.14,0.985,1.02
FC(F)(F)c1ccc(/C=C/c2nc(COc3ccc(CCCCn4ccnn4)cc3)co2)cc1 [Mubritinib (TAK 165)],0.716,0.534,0.545,0.517
CN(C)CCCOc1nn(Cc2ccccc2)c2ccccc12 [Benzydamine HCl],0.913,1.16,0.72,0.996
O=C1c2c(O)cc(O)cc2OC(c2ccc(O)c(O)c2)C1O (stereo not given) [Taxifolin (Dihydroquercetin)],1.04,1.15,0.951,1.06
CC1=C(C(=O)OC2CCCCC2)C(c2ccc([N+](=O)[O-])cc2)C2=C(CC(C)(C)CC2=O)N1 (stereo not given),0.701,0.97,0.893,0.862
C[C@@H]1C(=O)O[C@H]2C[C@@]34[C@H]5C[C@@H](C(C)(C)C)[C@]36[C@@H](OC(=O)[C@@H]6O)O[C@@]4(C(=O)O5)[C@]21O [Ginkgolide A],1.02,1.13,1.01,1.16
O=C(O)C(Cc1ccccc1[N+](=O)[O-])=NNc1nc(-c2ccc(Cl)c(Cl)c2)cs1 (mixture of isomers),0.727,0.775,0.717,0.573
CC(c1cc2ccccc2s1)N(O)C(N)=O (stereo not given) [Zileuton],1.08,1.13,1.05,1.1
NC(=O)c1ncn([C@@H]2O[C@H](CO)[C@@H](O)[C@H]2O)c1N [Acadesine],0.96,1.03,0.952,1.04
CN(C)CCc1c[nH]c2ccc(C[C@H]3COC(=O)N3)cc12 [Zolmitriptan],0.993,0.968,0.833,1.07
CN(C)CCC=C1c2ccccc2C=Cc2ccccc21 [Cyclobenzaprine HCl],0.777,1.1,0.544,0.961
O=C1c2cccc(O)c2C(=O)c2c(O)cc(CO)cc21 [Aloe-emodin],1.09,1.12,0.862,1.14
NS(=O)(=O)c1cc2c(cc1Cl)NCNS2(=O)=O [Hydrochlorothiazide],1.01,1.19,0.965,1.12
O=C1C(=O)N(Cc2ccc(Cl)c(Cl)c2)c2ccccc21 [Apoptosis Activator 2],0.431,0.543,0.157,0.108
O=C(NC1CCOCC1)c1ccc(-c2cc(-c3c[nH]nc3-c3ccccn3)ccn2)cc1,1.38,1.21,1.17,1.04
COc1cc(/C=C/C(=O)O)ccc1O [Ferulic Acid],1.06,1.07,0.875,1.08
C[N+]1(C)CCC(=C(c2ccccc2)c2ccccc2)CC1 [Diphemanil Methylsulfate],1.2,1.1,0.784,0.943
O=c1[nH]c(=O)n([C@H]2C[C@H](O)[C@@H](CO)O2)cc1F [Floxuridine],0.828,0.971,0.535,0.428
